Measured values as given in patent US20230165981A1, “[161Tb]-BASED RADIOPEPTIDES” (priority 2021, published 2023).

Experiments:
[1] = system: AR42J tumor cells; experiment: Cell uptake and internalization in AR42J tumor cells; type: cell-based, rat; settings: 1 µM DOTANOC
Protocol: The well-plates were incubated under standard cell culture conditions for 0.5 h, 2 h or 4 h. […] The total uptake and the internalized fractions were determined using a γ-counter (Perkin Elmer, Wallac Wizard 1480). […] Experiments were performed twice or three times in triplicate. Statistical analysis was performed using a two-way ANOVA with Tukey’s multiple comparisons post-test.

[2] = system: AR42J tumor cells; experiment: Cell uptake and internalization at increasing molar amounts of peptide; type: cell-based, rat; settings: 2 h
Protocol: Experiments were performed twice in triplicate.

[3] = system: AR42J tumor cells; experiment: Nuclear localization of the radiopeptides; type: cell-based, rat; settings: 2 h, 2.5 MBq, 125 pmol
Protocol: The next day, the medium was removed, the tumor cells were washed with PBS (pH 7.4) and 19.5 mL of assay medium was added. The radiopeptides were added in a volume of 0.5 mL (2.5 MBq, 125 pmol) and the tumor cells incubated for 2 h at 37° C. Afterwards, the cells were washed several times with PBS (pH 7.4) to completely remove excess of radiopeptides. Subsequently, the cell nuclei and cytoplasm/membrane fractions were harvested according to the manufacturer’s protocol using the Nucli EZ Prep Nuclei Isolation Kit (Sigma Aldrich, USA). Ice-cold Nuclei EZ lysis buffer (4 mL) were added to each Petri dish to lyse the tumor cells followed by transfer of the cell suspension into Eppendorf tube for centrifugation for 5 min at 500 rcf at 4° C. The supernatant containing cytoplasm/membrane fractions was transferred to a tube for counting activity in a γ-counter. The pellet was resuspended in 4 mL ice-cold Nuclei EZ lysis buffer followed by additional centrifugation for 5 min at 500 rcf at 4° C. […] The measured activity of nuclei and cytoplasm/cell membrane fractions was defined as 100% of the cellular uptake. Nuclear localization was expressed as percentage of total cellular uptake. The collected fractions were stained with 0.4% trypan blue solution and analyzed using a microscope in order to confirm that the nuclei were properly separated from other cell fragments.

[4] = system: AR42J tumor cells; settings: n=1

SMILES	cell uptake with excess DOTANOC (SSTR blocking) [1]	decrease of uptake (and internalization) ([2]; 1.5 pmol peptide)	decrease of uptake (and internalization) ([2]; 7.5 pmol peptide)	decrease of uptake (and internalization) ([2]; 75 pmol peptide)	nuclear uptake [3]	activity concentration for similar effect (<3% survival) [4]
C[C@@H](O)[C@@H]1NC(=O)[C@H](CCCCN)NC(=O)[C@@H](Cc2c[nH]c3ccccc23)NC(=O)[C@H](Cc2ccc(O)cc2)NC(=O)[C@@H](NC(=O)[C@@H](Cc2ccccc2)NC(=O)CN2CCN(CC(=O)O)CCN(CC(=O)O)CCN(CC(=O)O)CC2)CSSC[C@@H](C(=O)N[C@H](CO)[C@@H](C)O)NC1=O [[^177Lu]Lu-DOTATOC] [metal not drawn]	prevented the cell uptake	~ 30%	~ 30%	~ 90%	< 1 % of total cellular uptake	5 MBq/mL
C[C@@H](O)[C@@H]1NC(=O)[C@H](CCCCN)NC(=O)[C@@H](Cc2c[nH]c3ccccc23)NC(=O)[C@H](Cc2ccc(O)cc2)NC(=O)[C@@H](NC(=O)[C@@H](Cc2ccccc2)NC(=O)CN2CCN(CC(=O)O)CCN(CC(=O)O)CCN(CC(=O)O)CC2)CSSC[C@@H](C(=O)N[C@H](CO)[C@@H](C)O)NC1=O [[^161Tb]Tb-DOTATOC] [metal not drawn]	prevented the cell uptake					
